Results from paper PMC4336329 (PLoS ONE, 2015).
The whole screen tested about 310,000 compounds, of which about 2,200 (0.71%) showed an effect of 50% or more. The effect is printed as a negative number. The list shows a part of the results.

Molecular target: human ether-à-go-go-related gene (hERG) potassium channel (human, UniProt Q12809)
Assay: primary screen, population patch clamp on CHO cells stably expressing hERG

human ether-à-go-go-related gene (hERG) potassium channel, sequence (Q12809 whole entry, looked up): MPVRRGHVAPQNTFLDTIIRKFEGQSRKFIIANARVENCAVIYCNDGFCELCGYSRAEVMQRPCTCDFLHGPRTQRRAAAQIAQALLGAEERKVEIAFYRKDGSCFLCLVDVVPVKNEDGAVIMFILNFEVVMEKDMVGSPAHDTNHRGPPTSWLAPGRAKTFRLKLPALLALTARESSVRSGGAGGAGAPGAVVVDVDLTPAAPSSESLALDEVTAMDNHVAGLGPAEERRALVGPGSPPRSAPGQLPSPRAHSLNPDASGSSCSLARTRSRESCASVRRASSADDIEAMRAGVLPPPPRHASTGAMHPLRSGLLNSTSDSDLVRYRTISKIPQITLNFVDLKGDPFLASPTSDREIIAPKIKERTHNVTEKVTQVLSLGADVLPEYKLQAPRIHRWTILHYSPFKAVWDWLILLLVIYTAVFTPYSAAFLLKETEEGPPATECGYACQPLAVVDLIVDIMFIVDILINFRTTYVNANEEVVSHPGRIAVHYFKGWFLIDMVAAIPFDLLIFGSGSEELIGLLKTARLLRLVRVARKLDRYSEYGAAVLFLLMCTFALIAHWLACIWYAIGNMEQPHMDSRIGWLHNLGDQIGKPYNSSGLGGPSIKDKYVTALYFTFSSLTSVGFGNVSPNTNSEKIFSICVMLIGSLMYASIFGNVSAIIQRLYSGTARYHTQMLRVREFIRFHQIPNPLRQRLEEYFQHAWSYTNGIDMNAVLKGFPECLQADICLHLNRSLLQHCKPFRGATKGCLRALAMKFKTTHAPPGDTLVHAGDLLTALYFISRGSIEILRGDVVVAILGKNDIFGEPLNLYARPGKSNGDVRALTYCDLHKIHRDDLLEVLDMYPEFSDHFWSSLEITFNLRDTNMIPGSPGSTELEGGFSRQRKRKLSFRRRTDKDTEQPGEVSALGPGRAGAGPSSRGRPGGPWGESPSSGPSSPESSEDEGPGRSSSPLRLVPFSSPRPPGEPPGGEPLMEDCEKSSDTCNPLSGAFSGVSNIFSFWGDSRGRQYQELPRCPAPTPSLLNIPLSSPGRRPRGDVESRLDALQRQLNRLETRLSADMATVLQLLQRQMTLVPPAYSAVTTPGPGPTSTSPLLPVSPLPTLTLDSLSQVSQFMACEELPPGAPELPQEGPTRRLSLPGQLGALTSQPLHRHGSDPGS

Row | SMILES | hERG current change (%, negative = inhibition) at 1uM
1 | COc1ccc(C)cc1NC(=S)N1CCN(c2ccccn2)CC1 | 9.91%
2 | CCOC(=O)c1c(C)[nH]c(C(=O)COC(=O)/C=C/c2ccc3c(c2)OCO3)c1C | -0.52%
3 | CSc1nccc(NC(=O)c2cccc(Br)c2)n1 | 11.8%
4 | O=C(CN1C(=O)c2ccccc2C1=O)NCC(=O)OCC(=O)c1ccc(Cl)cc1 | 12.8%
5 | CN(C)S(=O)(=O)c1cccc(N2C(=O)CC3(CCCCC3)CC2=O)c1 | 20.7%
6 | Cl.O=C1C2CCN(CC2)C1Cc1ccc(OCc2ccccc2)cc1 (centres unmarked) | -0.266%
7 | Cc1ccccc1C(=O)NC(C)C(c1cccs1)N1CCOCC1 (centres unmarked) | 6.32%
8 | COc1ccc(-n2nc(C)c3onc(C)c3c2=O)cc1 | 11.6%
9 | O=C(CSc1ccccc1C(=O)O)NCC1CCCCC1 | 2.99%
10 | COc1ccc(Cn2c(=O)[nH]c3cc(C(=O)N4CCN(c5ccccc5)CC4)ccc3c2=O)cc1 | 15.2%
11 | Cc1nc(C(C)(C)O)n(-c2ccccc2)n1 | 7.05%
12 | CCCNC(=O)NC(=O)COC(=O)c1ccc(S(=O)(=O)N(C)c2ccccc2OC)cc1 | 13.7%
13 | CC[C@@]1(c2ccccc2OC)C(=O)N(C(=O)OC)N1C(=O)OC | 17.4%
14 | CC(C)(C)c1cc(OC(=O)Cc2ccccc2)ccc1O | 14.2%
15 | COc1ccc(-c2[nH]ncc2CN(C)C(C)c2ccncn2)c(F)c1 (centres unmarked) | 1.94%
16 | CNC(=O)c1ccc(-n2nc(C)cc2-c2ccccc2)cc1 | 5.22%
17 | Cn1nnc(NC(=O)CSc2nnnn2-c2ccc(F)cc2)n1 | 7.5%
18 | CC(=O)O.CN1CCCC(CN2c3ccccc3Sc3ccccc32)C1 (centres unmarked) | 2.17%
19 | Cl.NCc1ccccc1 | -0.942%

Row | SMILES | hERG current change (%, negative = inhibition) at 1uM
20 | CCCCCCC1CCC(C(=O)Nn2c(C)nc3ccccc3c2=O)CC1 (centres unmarked) | 17.9%
21 | COc1cc(OC)cc(C(=O)N[C@H](C(=O)Nc2nc3ccc(S(C)(=O)=O)cc3s2)C(C)C)c1 | 6.08%
22 | O=C(c1ccc2nc3ccc(Cl)cc3c(=O)n2c1)N1CCC2(CC1)OCCO2 | -22.8%
23 | N#C/C(=C/c1ccc(-c2ccc(C(=O)O)c(Cl)c2)o1)C(=O)NCC1CCCO1 (centres unmarked) | 10.3%
24 | Cc1noc(C)c1COC(=O)c1cc2c3ccccc3n(C)c2s1 | 8.48%
25 | Cc1c(N(C(=O)Nc2ccccc2)C2=NCC(C)S2)c(=O)n(-c2ccccc2)n1C (centres unmarked) | -7.97%
26 | C=CCOC(=O)C(=O)/C=C/c1c(C)n(C)n(-c2ccccc2)c1=O | 10.6%
27 | NS(=O)(=O)c1cccc(NC(=O)COC(=O)CN2C(=O)C3CC=CCC3C2=O)c1 (centres unmarked) | 21.2%
28 | O=S(=O)(c1cccc2nonc12)N1CCCCCC1 | 13.5%
29 | Cc1ccc(S(=O)(=O)N2CCC(=O)N(C(COCc3ccc(C(F)(F)F)cc3)C(C)C)CC2)cc1 (centres unmarked) | -6.42%
30 | COC(=O)Oc1ccc(/C=N/NC(=O)CSCc2ccccc2Br)cc1OC | -7.75%
31 | O=C1CN(c2ccc(Cl)cc2)C(=O)CN1NC(=S)Nc1ccc(Cl)cc1 | 1.26%
32 | CCOC(=O)c1cnn(-c2ccccc2)c1-n1cccc1C(=O)C(=O)Nc1ccccc1C(F)(F)F | 1.98%
33 | COc1cc(Cn2c(-c3ccc(O)c(OC)c3)nc3ccccc32)ccc1O | -9.9%
34 | CCn1c(=O)cc(N2CCC3(CC2)OCCO3)[nH]c1=O | 15.1%
35 | COc1ccc(Br)c(C(=O)N2CCN(S(=O)(=O)c3cccs3)CC2)c1 | -0.75%
36 | COc1ccccc1N1CCN(C(=O)c2cn(-c3ccccc3)nc2-c2cccnc2)CC1 | -0.268%
37 | COC(=O)c1nc(N)sc1-c1ccc(Cl)c(Cl)c1 | 4.56%
38 | COc1ccc(CCNC(=O)CSc2nc(C)nc3sccc23)cc1OC | 1.82%

Row | SMILES | hERG current change (%, negative = inhibition) at 1uM
39 | Cc1cc(SCC(=O)Nc2cccc(S(N)(=O)=O)c2)c(C)cc1Br | 14%
40 | Cc1c(C(=O)O)sc(=S)n1CCOc1ccccc1 | 7.26%
41 | CC(Sc1ccc(Br)cc1)C(N)=O (centres unmarked) | 9.74%
42 | C=CCN1C(=O)C(CC(=O)Nc2ccccc2F)S/C1=N\c1nccs1 (centres unmarked) | 2.23%
43 | O=c1ccn(Cc2ccccc2)cc1 | 15.3%
44 | CN(C)C(=O)CCC(=O)N1CCCC(N2CCN(c3cccc(C(F)(F)F)c3)CC2)C1 (centres unmarked) | 6.92%
45 | CCOC(=O)c1sc2cc([N+](=O)[O-])cc(SCCO)c2c1N | 11.5%
46 | COc1cccc(C(=O)CN2CCN(S(=O)(=O)c3cccc([N+](=O)[O-])c3)CC2)c1 | 6.87%
47 | O=C(CNS(=O)(=O)c1ccc([N+](=O)[O-])cc1)N/N=C/c1ccc(O)cc1O | 23%
48 | N#Cc1cccc(NC(=O)CSc2ccc3c4c(cccc24)C(=O)c2ccccc2-3)c1 | 21.4%
49 | COc1ccc(C2=CC3=C(Br)C(=O)C(C)(OC(=O)c4cccs4)C(=O)C3=CO2)cc1 (centres unmarked) | 6.56%
50 | Oc1cncc(-c2cccnc2)c1 | 7.49%
51 | O=C(NCc1cccnc1)c1cccn1-c1ncc(C(F)(F)F)cc1Cl | 14.9%
52 | Cc1ccc2nc(SCC(=O)Nc3cccc(S(N)(=O)=O)c3)[nH]c2c1 | 14.9%
53 | CCN(CC)c1nc(=S)nc(NC(C)(C)C)[nH]1 | -3.82%
54 | CC(CNC(=O)Cn1ccc2cc(S(=O)(=O)N3CCCC3)ccc21)c1ccccc1 (centres unmarked) | 6.26%
55 | CCOc1ccc(NC(=O)[C@@H](NC(=O)c2ccccc2)[C@@H](C)CC)cc1 | 15.9%
56 | O=C(NCc1cccnc1)c1cccc2c1C(=O)N(Cc1cccnc1)C2 | 9.64%
